The campaign covered roughly 310,000 compounds. About 2,200 (0.71%) showed an effect of 50% or more. Effects have a minus sign here. This is one part of the list.
The compounds below were run against human ether-à-go-go-related gene (hERG) potassium channel (human, UniProt Q12809) (assay: primary screen, population patch clamp on CHO cells stably expressing hERG).
Chain of human ether-à-go-go-related gene (hERG) potassium channel (Q12809 whole entry, looked up): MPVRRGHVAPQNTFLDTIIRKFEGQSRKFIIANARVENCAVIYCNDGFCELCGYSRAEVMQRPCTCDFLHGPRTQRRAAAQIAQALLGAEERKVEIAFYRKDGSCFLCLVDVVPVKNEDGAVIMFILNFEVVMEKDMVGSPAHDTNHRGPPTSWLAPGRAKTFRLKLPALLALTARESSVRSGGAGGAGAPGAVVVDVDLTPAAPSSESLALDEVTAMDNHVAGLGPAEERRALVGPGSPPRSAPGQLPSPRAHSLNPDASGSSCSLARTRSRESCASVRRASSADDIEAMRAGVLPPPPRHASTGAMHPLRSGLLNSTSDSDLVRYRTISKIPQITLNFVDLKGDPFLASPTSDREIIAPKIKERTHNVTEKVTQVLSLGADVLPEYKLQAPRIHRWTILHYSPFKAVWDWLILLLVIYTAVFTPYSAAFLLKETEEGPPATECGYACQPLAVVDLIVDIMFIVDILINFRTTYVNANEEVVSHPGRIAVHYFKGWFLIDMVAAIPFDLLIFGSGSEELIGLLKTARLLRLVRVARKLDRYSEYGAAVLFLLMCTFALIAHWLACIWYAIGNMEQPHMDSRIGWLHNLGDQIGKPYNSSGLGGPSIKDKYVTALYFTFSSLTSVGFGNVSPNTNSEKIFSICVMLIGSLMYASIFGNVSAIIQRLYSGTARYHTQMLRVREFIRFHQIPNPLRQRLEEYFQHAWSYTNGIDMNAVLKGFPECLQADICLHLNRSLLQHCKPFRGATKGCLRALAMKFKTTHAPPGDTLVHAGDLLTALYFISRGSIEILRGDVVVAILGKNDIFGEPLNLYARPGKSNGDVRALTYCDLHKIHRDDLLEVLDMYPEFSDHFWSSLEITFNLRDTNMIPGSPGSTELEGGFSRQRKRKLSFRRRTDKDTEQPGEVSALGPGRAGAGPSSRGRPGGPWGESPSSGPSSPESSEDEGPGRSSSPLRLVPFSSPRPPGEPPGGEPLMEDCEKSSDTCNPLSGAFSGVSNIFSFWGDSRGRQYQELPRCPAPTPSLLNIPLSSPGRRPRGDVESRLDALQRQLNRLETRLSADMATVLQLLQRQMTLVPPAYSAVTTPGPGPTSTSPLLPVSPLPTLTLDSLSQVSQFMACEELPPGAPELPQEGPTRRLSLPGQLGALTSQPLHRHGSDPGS

| SMILES | hERG current change (%, negative = inhibition) at 1uM [%] |
| --- | --- |
| Cc1ccccc1NS(=O)(=O)c1ccc(OCC(=O)N2CCCCC2)cc1 | 7.31 |
| Fc1ccc(C2CC(c3ccccc3)Nc3ncnn32)cc1 (centres unmarked) | -17 |
| COC(=O)Nc1ccc(S(=O)(=O)Nc2ncccn2)cc1 | 14 |
| CC(C)c1ccccc1NC(=S)N(C)C | 11.4 |
| CCCCn1c(N)c(N(CC(C)C)C(=O)c2ccc(OCC3CCCO3)cc2)c(=O)[nH]c1=O (centres unmarked) | 2.22 |
| CCOC(=O)/C(=C\c1ccc([N+](=O)[O-])cc1)C(=O)c1cc(C(C)=O)c(Nc2ccccc2)s1 | 5.08 |
| Cc1ccccc1C(=O)Nc1ccc(Br)c(C)n1 | 11.2 |
| C=CCN(C(=O)CSc1nc2ccsc2c(=O)n1Cc1ccccn1)c1ccccc1 | -1.98 |
| CC1(C)CC(=O)C=C(NNC(=O)C2CCCCC2)C1 | 9.12 |
| Cc1cc(/C=C(\C#N)C(=O)O)c(C)n1CC1CCCO1 (centres unmarked) | 10 |
| C=C1CCN(Cc2ccccc2)S(=O)(=O)c2ccccc21 | 1.59 |
| CCC(C)(C)n1nnnc1CN1CCc2ccccc21 | 15.1 |
| CCOc1ccc(N/C=C/C(=O)c2ccc(OC)cc2)cc1 | 12.3 |
| CC(=O)OCC1(C)CN(c2ccccc2)N(C(=O)c2ccc(F)cc2)C1=O (centres unmarked) | -2.17 |
| Oc1c(Cl)cc(Cl)cc1/C=C/c1ccc2cccc(O)c2n1 | 14.6 |
| Cc1ccccc1-n1nc(C)c2c1N=C1C(Cl)=CC(Cl)=CN1C2c1ccc(C(=O)O)cc1 (centres unmarked) | 17.5 |
| CC(C)(O)C#Cc1ccc(CN2CCCC(CNC(=O)c3ccco3)C2)cc1 (centres unmarked) | 16.4 |
| Cc1ccc(C)c(-c2cc(C(=O)Nc3nccs3)c3ccccc3n2)c1 | -6.95 |
| CCOC(=O)CSc1nc2c(c(=O)n1-c1ccc(OC)cc1)SCC2 | -0.153 |
| CCCc1cc(-c2n[nH]c(=S)n2C(C)c2ccccc2)cs1 (centres unmarked) | 15 |
| Cc1c(C(=O)Oc2cccc3cccnc23)cccc1[N+](=O)[O-] | 9.34 |
| CS(=O)(=O)c1nncn1-c1ccccc1 | 15.7 |

| SMILES | hERG current change (%, negative = inhibition) at 1uM [%] |
| --- | --- |
| CCN(CCn1cccn1)Cc1c(C(=O)N2CCCCCCC2)nc2ccc(Cl)cn12 | -8.7 |
| CCC1CCCCN1S(=O)(=O)c1ccc(NC(=O)c2ccncc2)cc1 (centres unmarked) | 10.3 |
| Clc1ccc(CSc2nnnn2-c2ccc3c(c2)OCO3)c(Cl)c1 | 13 |
| Cc1[nH][nH]c(=O)c1C(c1ccc2c(c1)OCO2)c1c(C)[nH][nH]c1=O | 4.14 |
| Cc1cc(C)n(-c2ccc(C(=O)NCc3cccs3)cc2)n1 | -1.92 |
| O=C(Nc1ccc(S(=O)(=O)N2CCCC2)cc1)c1cnccn1 | 16.3 |
| COc1ccccc1N1N=C(c2cccs2)CC1c1ccccc1 (centres unmarked) | 5.35 |
| CCCCn1c(O)c(C=NCCN2CCCCC2)c(=O)[nH]c1=O | 3.5 |
| Cc1ccc(C(C)(C)C)c(OCCN2CCCC2)c1 | -0.547 |
| N#Cc1cccc2c1-c1ccccc1/C2=N/NC(N)=S | 7.69 |
| COc1cc(CC(=O)NNC(=O)c2cc(C)oc2C)cc(OC)c1OC | 13.3 |
| CC(C)(C)c1ccc(-c2ccc3c(c2)S(=O)(=O)c2ccccc2C3=O)cc1 | 12.7 |
| COc1ccc2nc(NNC(=O)COc3ccccc3)sc2c1 | 4 |
| CSc1nc2nc3c(c(=O)n2[nH]1)CCCC3 | 5.44 |
| O=C(Cc1ccccc1[N+](=O)[O-])OCC(=O)c1c[nH]c2ccccc12 | 17.3 |
| Cc1ccc2c(C(=O)CCl)c(C)[nH]c2c1 | 11.7 |
| CCOc1ccc(Nc2ncnc3c2cnn3-c2ccccc2)cc1 | 9.38 |
| COc1ccc(C(=O)c2cnc(/N=C/N(C)C)s2)cc1 | 3.84 |
| COc1cccc(N(Cc2nnc3n2CCCCC3)C(=O)Nc2ccccc2)c1 | 14.5 |
| Cc1nn(C)cc1CNC(=O)Nc1ccc(Cl)c(Cl)c1 | 3.91 |
| CCOc1cccc2cc(C(=O)Nc3ccccc3-c3ccccc3)c(=O)oc12 | 0.466 |
| O=C(Nc1nnc(-c2ccc(Cl)cc2)o1)Nc1ccccc1F | 9.96 |
